The list shows a part of the results. The full chains were built here from the parent and the listed change. Values near 0.05 are background.
B1: TEV protease; numbered along this chain (parent)
chain: MGESLFKGPRDYNPISSSICHLTNESDGHTTSLYGIGFGPFIITNKHLFRRNNGTLVVQSLHGVFKVKDTTTLQQHLVDGRDMIIIRMPKDFPPFPQKLKFREPQREERICLVTTNFQTKSMSSMVSDTSCTFPSGDGIFWKHWIQTKDGQCGSPLVSTRDGFIVGIHSASNFTNTNNYFTSVPKNFMELLTNQEAQQWVSGWRLNADSVLWGGHKVFMVKPEEPFQPVKEATQL

Variants of: B1
Experiment: raw area under fraction-flipped curve 0-4 h after induction (AUC4h, not background-subtracted), DNA-recorder readout of cleavage of the substrate (dimensionless); higher = more cleavage of the substrate by the protease variant
Conditions: temperature: 34 °C; time window: 0-4 h after rhamnose induction
Experimental: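 In vivo DNA recorder in E. coli TOP10(DE3) ΔrhaA at 34 °C. Each TEVp single-site mutant (parent TEVp 0) is paired with a single-site variant of the 7-mer TEVs (canonical ENLYFQ|S). The substrate sits between flexible linkers in a Bxb1-sfGFP-TEVs-SsrA fusion, so cleavage stabilises Bxb1 and speeds flipping of a recombination array, read by NGS. The value is the raw area under the fraction-flipped curve over 0-4 h after rhamnose induction (AUC4h), with ≥20 reads per time point. It is not background-subtracted; inactive controls average about 0.047.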
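Further: Bxb1 expression induced with 0.2% (w/v) L-rhamnose at OD600 near 0.5, cultures sampled hourly, flipped fraction per protease–substrate barcode pair counted by paired-end Illumina sequencing.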

Row | Variant | area with substrate CNLYFQS | area with substrate HNLYFQS | area with substrate KNLYFQS | area with substrate LNLYFQS | area with substrate MNLYFQS | area with substrate NNLYFQS | area with substrate PNLYFQS | area with substrate SNLYFQS | area with substrate TNLYFQS | area with substrate VNLYFQS
1 | MGESLFKGPRDYNPISSSICHLTNESDGHTTSLYGIGFGPFIITNKHLFRRNNGTLVVQSLHGVFKVKDTTTLQQHLVDGRDMIIIRMPKDFPPFPQKLKFREPQREERICLVTTNFQTKSMSSMVSDTSCTFPSGDGIFWKHWIQTKDGQCGSPLVSTRDGFIVGIHSASNFTNTNNYFTSVPKNFMELLTNQEAQQWVSGWRLNADSVLWGGHKVFMVKPEEPFQPVKEATDL [Q234D] | 0.066 | 0.0638 | 0.0577 | 0.0523 | 0.048 | 0.0555 | 0.0686 | 0.0782 | 0.0473 | 0.0792
2 | MGESLFKGPRDYNPISSSICHLTNESDGHTTSLYGIGFGPFIITNKHLFRRNNGTLVVQSLHGVFKVKDTTTLQQHLVDGRDMIIIRMPKDFPPFPQKLKFREPQREERICLVTTNFQTKSMSSMVSDTSCTFPSGDGIFWKHWIQTKDGQCGSPLVSTRDGFIVGIHSASNFTNTNNYFTSVPKNFMELLTNQEAQQWVSGWRLNADSVLWGGHKVFMVKPEEPFQDVKEATQL [P228D] | 0.0623 | 0.0723 |  | 0.0813 | 0.0577 |  | 0.0978 | 0.084 | 0.0204 | 
3 | MGESLFKGPRDYNPISSSICHLTNESDGHTTSLYGIGFGPFIITNKHLFRRNNGTLVVQSLHGVFKVKDTTTLQQHLVDGRDMIIIRMPKDFPPFPQKLKFREPQREERICLVTTNFQTKSMSSMVSDTSCTFPSGDGIFWKHWIQTKDGQCGSPLVSTRDGFIVGIHSASNFTNTNNYFTSVPKNFMELLTNQEAQQWVSGWRLNADSVLWGQHKVFMVKPEEPFQPVKEATQL [G214Q] | 0.0556 |  |  |  |  |  |  | 0.054 |  | 0.0465
4 | MGESLFKGPRDYNPISSSICHLTNESDGHTTSLYGIGFGPFIITNKHLFRRNNGTLVVQSLHGVFKVKDTTTLQQHLVDGRDMIIIRMPKDFPPFPQKLKFREPQREERICLVTTNFQTKSMSSMVSDTSCTFPSGDGIFWKHWIQTKDGQCGSPLVSTRDGFIVGIHSASNFTNTNNYFTSVPKNFMELLTNQEAQQWVSGWRLNADSVLWGGHKVFMVKREEPFQPVKEATQL [P222R] | 0.0627 | 0.067 | 0.0697 | 0.0711 |  | 0.0759 | 0.0543 | 0.0637 | 0.0658 | 0.0463
5 | MGESLFKGPRDYNPISSSICHLTNESDGHTTSLYGIGFGPFIITNKHLFRRNNGTLVVQSLHGVFKVKDTTTLQQHLVDGRDMIIIRMPKDFPPFPQKLKFREPQREERICLVTTNFQTKSMSSMVSDTSCTFPSGDGIFWKHWIQTKDGQCGSPLVSTRDGFIVGIHSASNFTNTNNYFTSVPKNFMELLTNQEAQQWVSGWRLNADSVLWGGHKVKMVKPEEPFQPVKEATQL [F218K] | 0.0566 |  | 0.0547 | 0.0682 |  |  |  |  |  | 
6 | MGESLFKGPRDYNPISSSICHLTNESDGHTTSLYGIGFGPFIITNKHLFRRNNGTLVVQSLHGVFKVKDTTTLQQHLVDGRDMIIIRMPKDFPPFPQKLKFREPQREERICLVTTNFQTKSMSSMVSDTSCTFPSGDGIFWKHWIQTKDGQCGSPLVSTRDGFIVGIHSASNFTNTNNYFTSVPKNFMELLTNQEAQQWVSGWRLNADSVLWGGHKVTMVKPEEPFQPVKEATQL [F218T] | 0.0514 | 0.0613 |  | 0.0591 |  |  |  |  |  | 
7 | MGESLFKGPRDYNPISSSICHLTNESDGHTTSLYGIGFGPFIITNKHLFRRNNGTLVVQSLHGVFKVKDTTTLQQHLVDGRDMIIIRMPKDFPPFPQKLKFREPQREERICLVTTNFQTKSMSSMVSDTSCTFPSGDGIFWKHWIQTKDGQCGSPLVSTRDGFIVGIHSASNFTNTNNYFTSVPKNFMELLTNQEAQQWVSGWRLNADSVLWGGHKVDMVKPEEPFQPVKEATQL [F218D] | 0.0757 | 0.0413 | 0.0631 | 0.0563 | 0.0563 |  |  | 0.0561 | 0.0586 | 0.078
8 | MGESLFKGPRDYNPISSSICHLTNESDGHTTSLYGIGFGPFIITNKHLFRRNNGTLVVQSLHGVFKVKDTTTLQQHLVDGRDMIIIRMPKDFPPFPQKLKFREPQREERICLVTTNFQTKSMSSMVSDTSCTFPSGDGIFWKHWIQTKDGQCGSPLVSTRDGFIVGIHSASNFTNTNNYFTSVPKNFMELLTNQEAQQWVSGWRLNADSVLWGGHKVYMVKPEEPFQPVKEATQL [F218Y] | 0.0641 |  |  |  |  |  |  |  |  | 0.0581
9 | MGESLFKGPRDYNPISSSICHLTNESDGHTTSLYGIGFGPFIITNKHLFRRNNGTLVVQSLHGVFKVKDTTTLQQHLVDGRDMIIIRMPKDFPPFPQKLKFREPQREERICLVTTNFQTKSMSSMVSDTSCTFPSGDGIFWKHWIQTKDGQCGSPLVSTRDGFIVGIHSASNFTNTNNYFTSVPKNFMELLTNQEAQQWVSGWRLNADSVLWGGHKVAMVKPEEPFQPVKEATQL [F218A] | 0.0713 |  | 0.0666 | 0.0892 |  | 0.089 |  | 0.078 | 0.0487 | 

Same assay, conditions: temperature: 34 °C; time window: 0-4 h after rhamnose induction

Row | Variant | area with substrate WNLYFQS | area with substrate YNLYFQS | area with substrate INLYFQS | area with substrate QNLYFQS | area with substrate FNLYFQS | area with substrate GNLYFQS | area with substrate RNLYFQS
10 | MGESLFKGPRDYNPISSSICHLTNESDGHTTSLYGIGFGPFIITNKHLFRRNNGTLVVQSLHGVFKVKDTTTLQQHLVDGRDMIIIRMPKDFPPFPQKLKFREPQREERICLVTTNFQTKSMSSMVSDTSCTFPSGDGIFWKHWIQTKDGQCGSPLVSTRDGFIVGIHSASNFTNTNNYFTSVPKNFMELLTNQEAQQWVSGWRLNADSVLWGGHKVFMVKPEEPFQPVKEATDL [Q234D] | 0.0525 | 0.0675 |  |  |  |  | 
11 | MGESLFKGPRDYNPISSSICHLTNESDGHTTSLYGIGFGPFIITNKHLFRRNNGTLVVQSLHGVFKVKDTTTLQQHLVDGRDMIIIRMPKDFPPFPQKLKFREPQREERICLVTTNFQTKSMSSMVSDTSCTFPSGDGIFWKHWIQTKDGQCGSPLVSTRDGFIVGIHSASNFTNTNNYFTSVPKNFMELLTNQEAQQWVSGWRLNADSVLWGGHKVFMVKPEEPFQDVKEATQL [P228D] |  |  | 0.084 | 0.0803 |  |  | 
12 | MGESLFKGPRDYNPISSSICHLTNESDGHTTSLYGIGFGPFIITNKHLFRRNNGTLVVQSLHGVFKVKDTTTLQQHLVDGRDMIIIRMPKDFPPFPQKLKFREPQREERICLVTTNFQTKSMSSMVSDTSCTFPSGDGIFWKHWIQTKDGQCGSPLVSTRDGFIVGIHSASNFTNTNNYFTSVPKNFMELLTNQEAQQWVSGWRLNADSVLWGQHKVFMVKPEEPFQPVKEATQL [G214Q] |  | 0.0585 |  |  |  |  | 
13 | MGESLFKGPRDYNPISSSICHLTNESDGHTTSLYGIGFGPFIITNKHLFRRNNGTLVVQSLHGVFKVKDTTTLQQHLVDGRDMIIIRMPKDFPPFPQKLKFREPQREERICLVTTNFQTKSMSSMVSDTSCTFPSGDGIFWKHWIQTKDGQCGSPLVSTRDGFIVGIHSASNFTNTNNYFTSVPKNFMELLTNQEAQQWVSGWRLNADSVLWGGHKVFMVKREEPFQPVKEATQL [P222R] | 0.0588 | 0.0528 | 0.0521 |  | 0.0782 | 0.0571 | 0.0502
14 | MGESLFKGPRDYNPISSSICHLTNESDGHTTSLYGIGFGPFIITNKHLFRRNNGTLVVQSLHGVFKVKDTTTLQQHLVDGRDMIIIRMPKDFPPFPQKLKFREPQREERICLVTTNFQTKSMSSMVSDTSCTFPSGDGIFWKHWIQTKDGQCGSPLVSTRDGFIVGIHSASNFTNTNNYFTSVPKNFMELLTNQEAQQWVSGWRLNADSVLWGGHKVKMVKPEEPFQPVKEATQL [F218K] | 0.0499 |  |  | 0.061 |  |  | 
15 | MGESLFKGPRDYNPISSSICHLTNESDGHTTSLYGIGFGPFIITNKHLFRRNNGTLVVQSLHGVFKVKDTTTLQQHLVDGRDMIIIRMPKDFPPFPQKLKFREPQREERICLVTTNFQTKSMSSMVSDTSCTFPSGDGIFWKHWIQTKDGQCGSPLVSTRDGFIVGIHSASNFTNTNNYFTSVPKNFMELLTNQEAQQWVSGWRLNADSVLWGGHKVTMVKPEEPFQPVKEATQL [F218T] | 0.0506 | 0.0573 |  |  | 0.0358 | 0.0631 | 
16 | MGESLFKGPRDYNPISSSICHLTNESDGHTTSLYGIGFGPFIITNKHLFRRNNGTLVVQSLHGVFKVKDTTTLQQHLVDGRDMIIIRMPKDFPPFPQKLKFREPQREERICLVTTNFQTKSMSSMVSDTSCTFPSGDGIFWKHWIQTKDGQCGSPLVSTRDGFIVGIHSASNFTNTNNYFTSVPKNFMELLTNQEAQQWVSGWRLNADSVLWGGHKVDMVKPEEPFQPVKEATQL [F218D] | 0.0566 | 0.058 |  |  | 0.0641 |  | 
17 | MGESLFKGPRDYNPISSSICHLTNESDGHTTSLYGIGFGPFIITNKHLFRRNNGTLVVQSLHGVFKVKDTTTLQQHLVDGRDMIIIRMPKDFPPFPQKLKFREPQREERICLVTTNFQTKSMSSMVSDTSCTFPSGDGIFWKHWIQTKDGQCGSPLVSTRDGFIVGIHSASNFTNTNNYFTSVPKNFMELLTNQEAQQWVSGWRLNADSVLWGGHKVYMVKPEEPFQPVKEATQL [F218Y] |  |  | 0.066 |  |  |  | 
18 | MGESLFKGPRDYNPISSSICHLTNESDGHTTSLYGIGFGPFIITNKHLFRRNNGTLVVQSLHGVFKVKDTTTLQQHLVDGRDMIIIRMPKDFPPFPQKLKFREPQREERICLVTTNFQTKSMSSMVSDTSCTFPSGDGIFWKHWIQTKDGQCGSPLVSTRDGFIVGIHSASNFTNTNNYFTSVPKNFMELLTNQEAQQWVSGWRLNADSVLWGGHKVAMVKPEEPFQPVKEATQL [F218A] |  | 0.0591 |  |  |  | 0.0706 | 0.0334

— the supplement of paper PMC12217912
